# According to the supplement of paper PMC9446081:
# Screen size: about 39,000 compounds; about 220 (0.56%) showed activity. Some of the results follow.
# Tested on: Escherichia coli K-12 BW25113
# Experiment: relative growth (OD600 normalised to plate interquartile mean) (fraction); higher = less growth inhibition, active = 0.2 or less
# Details: 50 µM; LB; incubation time: overnight (16-24 h)
# 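Also: static incubation at 37 °C against the wild-type strain, values averaged over two biological replicates.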
row,Structure (SMILES),relative growth
1,Cc1cn[nH]c1.Cl,inactive: 1.01
2,CC(C)NC(=O)N(C)C[C@H]1Oc2ccc(NC(=O)CCC(F)(F)F)cc2C(=O)N([C@@H](C)CO)C[C@@H]1C,inactive: 1.01
3,COc1ccc(CN(C)C[C@@H]2OCCCC[C@H](C)Oc3ccc(NS(=O)(=O)c4c(C)noc4C)cc3C(=O)N([C@@H](C)CO)C[C@H]2C)cc1,inactive: 0.987
4,CCS(=O)(=O)Nc1ccc2c(c1)C(=O)N(C)[C@@H]1CC[C@@H](CC(=O)N[C@@H]3CCN(Cc4ccccc4)C3)O[C@H]1CO2,inactive: 1
5,C[C@@H]1CN([C@H](C)CO)C(=O)c2cccc(NS(=O)(=O)c3cn(C)cn3)c2O[C@H]1CN(C)S(=O)(=O)c1cccs1,inactive: 0.983
6,Cn1cc(C(=O)O)cn1,inactive: 1.02
7,Cc1noc(C)c1S(=O)(=O)N(C)C[C@@H]1OCCCC[C@@H](C)Oc2ccc(NS(C)(=O)=O)cc2C(=O)N([C@H](C)CO)C[C@@H]1C,inactive: 0.991
8,CCC(=O)N(C)C[C@H]1Oc2ncc(C#C[C@H](C)O)cc2C(=O)N([C@H](C)CO)C[C@@H]1C,inactive: 0.983
9,O=S1(=O)CCN(CCc2ccccc2)CC1,inactive: 0.954
10,Cc1cc(C(=O)N2[C@@H]3CC[C@@H](C3)[C@H]2c2nc3cccc(OCc4ccc(F)cc4)c3[nH]2)n(C(C)(C)C)n1,inactive: 1.03
11,C[C@@H]1CN([C@@H](C)CO)C(=O)Cc2cc(NS(C)(=O)=O)ccc2O[C@H]1CN(C)S(=O)(=O)c1ccccc1,inactive: 0.997
12,C[C@H](CO)N1C[C@H](C)[C@@H](CN(C)C(=O)NC2CCCC2)Oc2cc(Br)ccc2S1(=O)=O,inactive: 1.01
13,C[C@@H]1CCCCO[C@H](CN(C)C)[C@@H](C)CN([C@H](C)CO)C(=O)c2cc(NC(=O)CCCN(C)C)ccc2O1,inactive: 1
14,CC(C)(C)OC(=O)NCc1nnc(N)[nH]1,inactive: 1.04
15,C[C@@H]1CCCCO[C@H](CN(C)Cc2ccc(C(F)(F)F)cc2)[C@@H](C)CN([C@H](C)CO)C(=O)c2cc(NS(=O)(=O)c3cccs3)ccc2O1,inactive: 1.03
16,COc1ccc(S(=O)(=O)N(C)C[C@H]2Oc3ccc(NS(=O)(=O)c4ccccc4)cc3CC(=O)N([C@@H](C)CO)C[C@@H]2C)cc1,inactive: 1.01
17,COc1ccc2c(c1OCc1ccccc1)C[C@@H](C(=O)O)N(C(=O)C(c1ccccc1)c1ccccc1)C2,inactive: 1.02
18,COc1cccc(-c2cc(=O)c3cc(OC)ccc3o2)c1,inactive: 0.878
19,NCc1cccc(-c2nccs2)c1,inactive: 0.994
20,COCC#Cc1ccc2c(c1)O[C@@H](CN(C)C(=O)c1ccccc1)[C@@H](C)CN([C@H](C)CO)S2(=O)=O,inactive: 1.01
21,CCOC(=O)N1c2ccc(C(F)(F)F)cc2[C@@H](N(Cc2cc(C(F)(F)F)cc(C(F)(F)F)c2)C(=O)OC)C[C@H]1CC,inactive: 1.01

row,Structure (SMILES),relative growth
1,C[C@@H]1CN([C@@H](C)CO)S(=O)(=O)c2ccc(C#CC3(O)CCCC3)cc2O[C@H]1CN(C)C(=O)Nc1ccc(F)cc1,inactive: 1
2,CO[C@H]1CN(C)C(=O)c2ccc(NC(=O)NC(C)C)cc2OC[C@@H](C)N(Cc2ccc(-c3ccccn3)cc2)C[C@H]1C,inactive: 0.994
3,CO[C@@H]1[C@@H](O[C@@H]2O[C@H](C)[C@@H](O[C@H]3C[C@@](C)(O)[C@@H](O)[C@H](C)O3)[C@H](N(C)C)[C@H]2O)[C@@H](CC=O)C[C@@H](C)[C@@H](O[C@H]2CC[C@H](N(C)C)[C@@H](C)O2)/C=C/C=C/CC(C)OC(=O)C[C@H]1OC(C)=O (stereo partly drawn),inactive: 0.972
4,CC(C)CC#Cc1cnc2c(c1)C(=O)N([C@H](C)CO)C[C@@H](C)[C@@H](CN(C)C(=O)c1ccc3c(c1)OCO3)O2,inactive: 0.986
5,CO[C@H](CN(C)S(=O)(=O)c1cn(C)cn1)[C@H](C)CN(C(=O)Nc1ccc(C(F)(F)F)cc1)[C@H](C)CO,inactive: 0.877
6,C=CCOC(=O)[C@H]1[C@@H]2C(=O)O[C@@H](c3ccccc3)[C@@H](c3ccccc3)N2[C@@H](c2ccc(OCCOC(=O)[C@H]3C[C@H]4C(=O)N[C@@H](CCCC[N+](C)(C)C)C(=O)N4[C@H]3c3cccc(OCCO)c3)cc2)[C@]12C(=O)Nc1ccccc12,inactive: 1.01
7,CCC1OC(=O)C(C)C(OC2CC(C)(OC)C(O)C(C)O2)C(C)C(OC2OC(C)CC(N(C)C)C2O)C(C)(O)CC(C)CN(C)C(C)C(O)C1(C)O (stereo not drawn),active: 0.0435
8,CCNC(=O)C[C@@H]1CC[C@@H](NC(=O)C2CC2)[C@@H](CO)O1,inactive: 0.969
9,C[C@@H]1CN([C@@H](C)CO)S(=O)(=O)c2ccc(C#Cc3ccccc3)cc2O[C@@H]1CN(C)S(=O)(=O)c1ccccc1F,inactive: 1
10,C[C@H]1CN([C@@H](C)CO)C(=O)c2cc(NC(=O)Cc3ccccc3)ccc2O[C@@H]1CN(C)Cc1ccc(Oc2ccccc2)cc1,inactive: 0.998
11,Nc1ccccc1S(N)(=O)=O,inactive: 1.01
12,Cc1noc(C)c1NC(=O)N(C)C[C@H]1Oc2c(NC(=O)c3cnccn3)cccc2C(=O)N([C@H](C)CO)C[C@H]1C,inactive: 0.98
13,COc1ccc(NC(=O)Nc2ccc3c(c2)C(=O)N([C@H](C)CO)C[C@H](C)[C@H](CN(C)S(=O)(=O)c2ccc(F)cc2)OCCCC[C@H](C)O3)cc1,inactive: 0.996
14,C[C@@H]1CN([C@H](C)CO)C(=O)c2cc(NS(=O)(=O)c3cn(C)cn3)ccc2O[C@H]1CN(C)Cc1ccccc1,inactive: 0.988
15,C[C@H]1CN([C@@H](C)CO)C(=O)Cc2cc(NC(=O)Nc3ccc4c(c3)OCO4)ccc2O[C@@H]1CN(C)Cc1ccc(C(F)(F)F)cc1,inactive: 1.03
16,C[C@H](CO)N1C[C@H](C)[C@H](CN(C)S(=O)(=O)c2cn(C)cn2)Oc2ccc(NC(=O)CCCCCC(=O)Nc3ccccc3N)cc2C1=O,inactive: 1
17,COCC(=O)Nc1ccc2c(c1)OC[C@H](C)N(C(=O)Cc1cccnc1)C[C@H](C)[C@@H](OC)CN(C)C2=O,inactive: 1.05
18,CNC[C@H](O)c1cccc(O)c1,inactive: 1.02
19,C[C@@H](Oc1ccccc1)c1ccn[nH]1,inactive: 1.03
20,Cc1nnc(NCc2ccccc2)n(N)c1=O,inactive: 0.975
21,O=C(C[C@@H]1CC[C@H]2[C@@H](COC[C@H](O)CN2S(=O)(=O)c2ccccc2)O1)N[C@@H]1CCN(Cc2ccccc2)C1,inactive: 0.849

row,Structure (SMILES),relative growth
1,O=C(C[C@@H]1CC[C@@H]2[C@H](COC[C@H](O)CN2S(=O)(=O)c2cccc(Cl)c2)O1)NCCCN1CCOCC1,inactive: 0.966
2,C[C@H](CO)N1C[C@H](C)[C@H](CN(C)C)Oc2ccc(NS(=O)(=O)c3ccc(Cl)cc3)cc2CC1=O,inactive: 0.999
3,C[C@@H]1CN([C@H](C)CO)C(=O)c2cc(NC(=O)Cc3ccccc3)ccc2O[C@@H](C)CCCCO[C@H]1CN(C)S(=O)(=O)c1ccc(F)cc1,inactive: 0.998
4,CC(C)NC(=O)Nc1cccc2c1O[C@H](CN(C)S(=O)(=O)c1ccccc1)[C@@H](C)CN([C@H](C)CO)C2=O,inactive: 0.986
5,NC[C@@H]1CCCO1,inactive: 1.03
6,CC(=O)OCC(=O)C1(O)C(OC(C)=O)CC2C3CCC4=CC(=O)C=CC4(C)C3(F)C(O)CC21C (stereo not drawn),inactive: 0.942
7,COC(=O)C1(N2CC3=C[C@@H]([C@@H](O)Cc4ccccc4)n4c(=O)n(C)c(=O)n4[C@@H]3[C@@H](C3CC3)O2)CCCC1,inactive: 0.999
8,CN(C)Cc1cn(CC[C@H]2CC[C@H](N)[C@@H](CO)O2)nn1,inactive: 0.921
9,COCC(=O)Nc1ccc2c(c1)C(=O)N(C)[C@H]1CC[C@H](CC(=O)NCc3ccccc3Cl)O[C@H]1CO2,inactive: 1.01
10,C[C@@H]1CN([C@H](C)CO)C(=O)c2cc(NC(=O)Cc3ccccc3)ccc2O[C@@H](C)CCCCO[C@H]1CN(C)C(=O)c1ccccc1,inactive: 0.994
11,CN(C)CCCNC(=O)C[C@H]1CC[C@H]2[C@H](COc3ccc(NC(=O)c4cccc(F)c4)cc3C(=O)N2C)O1,inactive: 1
12,Cc1noc(C)c1NC(=O)Nc1ccc2c(c1)C(=O)N([C@H](C)CO)C[C@@H](C)[C@H](CN(C)C(=O)Nc1ccc(C(F)(F)F)cc1)O2,inactive: 0.981
13,C[C@H](CO)N1C[C@H](C)[C@@H](CN(C)Cc2ccncc2)Oc2c(NC(=O)Cn3cnnn3)cccc2C1=O,inactive: 1.02
14,Cc1nn(C)cc1NC(=O)C[C@H]1CC[C@@H]2[C@H](COc3ccc(NC(=O)C4CCOCC4)cc3C(=O)N2C)O1,inactive: 1.02
15,C[C@H](CO)N1C[C@H](C)[C@@H](CN(C)Cc2ccc(C(F)(F)F)cc2)OCCCC[C@H](C)Oc2ccc(NC(=O)Nc3cccc4ccccc34)cc2C1=O,inactive: 1.01
16,O=C(C[C@H]1C[C@H]2c3cc(NC(=O)Cc4ccncc4)ccc3O[C@H]2[C@@H](CO)O1)NCc1cc(F)ccc1F,inactive: 0.974
17,CCCCN(CCCC)CCCOC(=O)c1ccc(N)cc1.O=S(=O)(O)O,inactive: 0.986
18,COc1ccc(NC(=O)Nc2ccc3c(c2)C(=O)N([C@@H](C)CO)C[C@H](C)[C@@H](CN(C)Cc2ccc(Cl)c(Cl)c2)O3)cc1,inactive: 1.01
19,CCOC(=O)c1cc(=O)c2cc([C@@H]3CC(=O)N(C(=O)OCc4ccccc4)[C@@H]3C(=O)Nc3cccc4cccnc34)ccc2o1,inactive: 1.01
20,CC(C)=CCCC(C)=CCOc1ccc2ccc(=O)oc2c1,inactive: 0.886
21,C[C@H](CO)N1C[C@H](C)[C@H](CN(C)C(=O)Cc2ccccc2)OCCCC[C@H](C)Oc2ccc(NC(=O)CCC(F)(F)F)cc2C1=O,inactive: 0.959
